Results from PubChem BioAssay (NCATS).
“And” between values parts separate entries of the source, which are not always exact repeats. Equal values may be shown once. Inconclusive means that the source gave no clear call. Such entries were picked first, then a sample of the others. For part of these data: A potency beside an inconclusive call is a rough fit, not a confirmed value. The source made the active and inactive calls. Unless noted, calls come from the whole dose curve; as a rule, active = well fitted curve in the direction sought with a large enough effect; inconclusive = small, poorly fitted or top-dose-only effect, or another doubt; inactive = no such curve, though single readings can be large; an effect the other way counts as inactive or inconclusive.

Columns and labels:
[1] = NFAT Signaling Pathway (AID 444; active = well fitted curve in either direction with a large enough effect, not every such curve was filed as active; inconclusive = small, poorly fitted or top-dose-only effect, or another doubt;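 note: carbachol stimulus at about its EC50 of 1 µM final; % is set by controls: 0 for no effect and ±100 for the full control effect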); details: Jurkat NFAT-bla M1, carbachol, beta-lactamase ratio, 5 h
In short: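 Jurkat cells with NFAT-driven β-lactamase reporter and co-expressed M1 receptor, stimulated with carbachol (final 1 uM, ~EC50), compound titration, 5 h at 37 °C. CCF4 loaded 1 h at RT; 460/530 nm ratio gave %activity and AC50.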

[2] = qHTS Assay for Lipid Storage Modulators (AID 1519; calls by dose curve; note: potency is the fitted concentration of half-maximal effect; for activity change, negative = inhibition: % is set by controls: 0 for no effect and ±100 for the full control effect); details: Drosophila S3 cells, BODIPY lipid droplet/cell ratio, laser cytometry, cells loaded with oleic acid; activity change, negative = inhibition: at 57.5 µM (top of the series)
In short: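 Cells seeded at 5,000 per well were treated with compounds over a concentration series and loaded with oleic acid (400 uM, as added). Lipid droplet fluorescence (488 nm excitation, 500-530 nm channel) was read by laser-scanning cytometry and normalized to 20 uM Triacsin C.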

astro = test: Drug repurposing screens with cells derived from glioblastoma tumor samples (AID 1345199); details: viability, ATP luminescence, 48 h; series mostly up to 45.9 µM; note: potency is the fitted concentration of half-maximal effect; nearly all actives have a fitted effect of over 40% in size
In short: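 Primary testing used CD133+ neurospheres from four GBM patients, seven concentrations, 48 h exposure and ATP-based viability; confirmation added three slower-growing patient lines.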

[3] = qHTS to identify inhibitors of the type 1 interferon - major histocompatibility complex class I in skeletal muscle: primary screen against the NCATS Mechanism Interrogation Plate v5.0 (MIPE) Libary (AID 1347411); details: iHSKM cells + IFN-b, HiBiT-tagged MHC-I luminescence, 24 h; activity change, negative = inhibition: at 45.8 µM (top of the series); note: potency is the fitted concentration of half-maximal effect; nearly all actives have a fitted effect of over 65% in size
In short: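 IFN-beta-driven (4 ng/ml) HLA-B-HiBit expression in CRISPR-tagged C25cl48 myoblasts; compounds 11-pt, 1:3, max 46 uM, 24 hr exposure; lytic NanoLuc complementation luminescence.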

[4] = Quantitative High-Throughput drug screen in 47 multiple myeloma cell lines against the NCATS MIPE library collection: AMO1_DSMZ cell viability assay (AID 1918927; note: potency is the fitted concentration of half-maximal effect; nearly all actives have a fitted effect of over 30% in size)
In short: (§1)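 Myeloma cells (500 per well) were exposed to MIPE 4.0 compounds by pin transfer and incubated 48 hours at 37C, 5% CO2. Viability was read as ATP by CellTiter-Glo luminescence, normalised to DMSO (100%) and media-only (0%) wells.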

[5] = Quantitative High-Throughput drug screen in 47 multiple myeloma cell lines against the NCATS MIPE library collection: KMS27_JCRB cell viability assay (AID 1918970); details: KMS27 myeloma cells, CellTiter-Glo ATP viability, 48 h; viability (% of DMSO): at 45.8 µM (top of the series); note: potency is the fitted concentration of half-maximal effect; nearly all actives have a fitted effect of over 30% in size
In short: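 ATP-based viability (CellTiter-Glo luminescence) is measured in cells treated 48 h with approved and investigational drugs at 37 °C. Controls are DMSO-only wells for full viability and media-only wells for none.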

[6] = Quantitative High-Throughput drug screen in 47 multiple myeloma cell lines against the NCATS MIPE library collection: OCIMY1_PLB cell viability assay (AID 1918979); note: potency is the fitted concentration of half-maximal effect; nearly all actives have a fitted effect of over 35% in size
In short: (§2)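 500 cells/well; MIPE 4.0 drugs pin-transferred; 48 h, 37C, 5% CO2. CellTiter-Glo, 5 min RT, luminescence. Controls: DMSO 100%, media 0%.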

[7] = Quantitative High-Throughput drug screen in 47 multiple myeloma cell lines against the NCATS MIPE library collection: OPM2_DSMZ cell viability assay (AID 1919872); note: potency is the fitted concentration of half-maximal effect; nearly all actives have a fitted effect of over 30% in size
In short: as §1

MKL-1 = test: qHTS assay to identify novel small-molecules to repurpose for Merkel cell carcinoma treatment (AID 1296009); details: MCC and control cell lines, CellTiter-Glo viability, 72 h; activity change, negative = cytotoxicity: at 46 µM (top of the series); note: nearly all actives have a fitted effect of over 60% in size; note: potency is the fitted concentration of half-maximal effect; for activity change, negative = cytotoxicity: % is set by controls: 0 for no effect and ±100 for the full control effect
In short: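 CellTiter-Glo luminescence after 72 hr compound exposure at 37 degree celsius gave cell viability. Libraries NPC and MIPE were run as 8- and 11-point dose responses; RLUs normalized to DMSO (negative) and no-cell (cytotoxicity) controls.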

[8] = qHTS of pediatric cancer cell lines to identify multiple opportunities for drug repurposing: Primary screen for U-2 OS cells (AID 1347096); note: potency is the fitted concentration of half-maximal effect; nearly all actives have a fitted effect of over 50% in size
In short: (§3)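 Viability after 48 h compound treatment at 37C, 500-1,000 cells/well, read as ATP luminescence with CellTiter-Glo. Primary screens used 11-point (MIPE, 0.78 nM-46 µM) or 8-point (NPC, 0.59 nM-46 µM) final concentrations; follow-up screens used 11-point dilutions.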

[9] = qHTS of pediatric cancer cell lines to identify multiple opportunities for drug repurposing: Primary screen for Saos-2 cells (AID 1347097); details: Saos-2 viability, CellTiter-Glo ATP luminescence, 48 h; activity change, negative = cytotoxic: at 46 µM (top of the series); note: potency is the fitted concentration of half-maximal effect; nearly all actives have a fitted effect of over 40% in size
In short: (§4)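 Luminescence from CellTiter-Glo served as readout of metabolically active cells after 48 h compound exposure. Titrations: MIPE 11-point, from 0.78 nM; NPC 8-point, from 0.59 nM (final). Concentration-response curves came straight from the primary screen.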

[10] = qHTS of pediatric cancer cell lines to identify multiple opportunities for drug repurposing: Primary screen for RD cells (AID 1347104); note: potency is the fitted concentration of half-maximal effect; nearly all actives have a fitted effect of over 55% in size
In short: as §4

[11] = qHTS of pediatric cancer cell lines to identify multiple opportunities for drug repurposing: Primary screen for OHS-50 cells (AID 1347103); note: potency is the fitted concentration of half-maximal effect; nearly all actives have a fitted effect of over 40% in size
In short: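 Cells (500-1,000/well) rested 5 h, then received compounds for 48 h; metabolically active cells were measured by CellTiter-Glo luminescence. Final concentrations spanned up to 46 µM (MIPE, 11-point) or 0.59 nM-46 µM (NPC, 8-point) in primary screens, 11-point in follow-ups.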

[12] = qHTS of pediatric cancer cell lines to identify multiple opportunities for drug repurposing: Primary screen for control Hh wild type fibroblast cells (AID 1347106); note: potency is the fitted concentration of half-maximal effect; nearly all actives have a fitted effect of over 55% in size
In short: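 Cells (500-1,000/well) in growth media were settled 5 h at 37 degrees C, then given compounds for 48 h. Viability was read as CellTiter-Glo luminescence. Primary runs used MIPE at 11 points (0.78 nM-46 µM) and NPC at 8 points (0.59 nM-46 µM); follow-ups used 11 points.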

[13] = qHTS of pediatric cancer cell lines to identify multiple opportunities for drug repurposing: Confirmatory screen for NB-EBc1 cells (AID 1347115);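 note: cells exposed to compound for 48 h before the viability read; nearly all actives have a fitted effect of over 45% in size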; note: potency is the fitted concentration of half-maximal effect; for activity change, negative = cytotoxic: % is set by controls: 0 for no effect and ±100 for the full control effect
In short: as §3

[14] = qHTS of pediatric cancer cell lines to identify multiple opportunities for drug repurposing: Confirmatory screen for SJ-GBM2 cells (AID 1347116); note: nearly all actives have a fitted effect of over 60% in size; note: potency is the fitted concentration of half-maximal effect;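 for activity change, negative = cytotoxic: plate controls were DMSO for no effect and bortezomib for full effect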
In short: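 Viability measured as metabolically active cells via CellTiter-Glo luminescence following 48 hours of compound exposure, 11-point dilutions in confirmatory testing. 500-1,000 cells/well plated 5 hours before dosing; controls were DMSO and 2.3 µM bortezomib.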

[15] = A High-Content qHTS Against Drug Library for the Identification of Small Molecules that Inhibit DYT1 Early Onset Primary Dystonia-Associated Cell Pathology (AID 1645839; calls by dose curve)
In short: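 Cells were seeded and left for 24 h, then dosed with compound alongside tetracycline induction of mutant EGFP-TorsinA. They were incubated for 48 h, fixed in 4% paraformaldehyde, permeabilized and imaged for mislocalization (%pathology) and cell count.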

[16] = Quantitative High-Throughput drug screen in 47 multiple myeloma cell lines against the NCATS MIPE library collection: XG1_PLB cell viability assay (AID 1919866); note: potency is the fitted concentration of half-maximal effect; nearly all actives have a fitted effect of over 35% in size
In short: as §2
Tags give direction and shape of the fitted curve.

Cc1cc(N)c2ccccc2[n+]1CCCCCCCCCC[n+]1c(C)cc(N)c2ccccc21
inconclusive: activity change, negative = inhibition ([1]; at 17.2 µM (top of the series)) -64.4% [inhibitor] | Potency [2] 15.8 µM [inhibitor, single point] | activity change, negative = inhibition [2] -81.2% | Potency (astro) 1.41 µM [inhibitor, partial curve, poor fit]
active: activity change, negative = inhibition ([1]; at 38 µM (top of the series)) -78.7%

CN1CCc2c(c3ccccc3n2Cc2ccc(C(=O)NO)cc2)C1
inconclusive: Potency [3] 18.6 µM [inhibitor, single point] | Potency [4] 37.2 µM [cytotoxic, single point] | Potency [5] 33.2 µM [cytotoxic, single point] | Potency [6] 23.5 µM [cytotoxic, partial curve] | Potency [7] 20.9 µM [cytotoxic, partial curve] | activity change, negative = cytotoxicity (MKL-1) -30.4% [inhibitor]

C[C@]12CC[C@@H]3c4ccc(O)cc4CC[C@H]3[C@@H]1CC[C@@H]2OC(=O)CCC1CCCC1
inconclusive: Potency [8] 26.6 µM [cytotoxic, single point] | Potency [9] 15 µM [cytotoxic, single point] | Potency [10] 23.7 µM [cytotoxic, single point] | Potency (astro) 11.2 µM [inhibitor, partial curve] and 20 µM [inhibitor, partial curve]

O=C(C=Cc1ccc(CN(CCO)CCc2c[nH]c3ccccc23)cc1)NO
active: Potency [11] 0.243 µM | Potency [12] 2.35 µM | Potency [4] 0.0935 µM | Potency [6] 0.296 µM | Potency (MKL-1) 0.418 µM
inconclusive: Potency [13] 0.261 µM [cytotoxic, full curve, poor fit] | Potency [14] 0.329 µM [cytotoxic, full curve, poor fit]

Cc1ccc2nc(N)[nH]c(=O)c2c1Sc1ccncc1
active: Potency [13] 11.7 µM
inactive: Potency [14] | Potency [15]
inconclusive: Potency [11] 7.77 µM [cytotoxic, partial curve] | Potency [10] 3.35 µM [cytotoxic, partial curve, poor fit] | Potency (astro) 7.08 µM [inhibitor, partial curve]

CCCCCC(=O)O[C@]1(C(C)=O)CC[C@H]2[C@@H]3CCC4=CC(=O)CC[C@]4(C)[C@H]3CC[C@@]21C
inconclusive: activity change, negative = inhibition ([1]; at 17.2 µM (top of the series)) -106% [inhibitor] | Potency [8] 21.1 µM [cytotoxic, single point] | Potency [9] 29.9 µM [cytotoxic, single point] | Potency [10] 29.9 µM [cytotoxic, partial curve, poor fit] | Potency (MKL-1) 26.6 µM [inhibitor, partial curve, poor fit] | Potency (astro) 15.8 µM [inhibitor, single point]

CCN(CC)CCNC(=O)c1c(C)[nH]c(C=C2C(=O)Nc3ccc(F)cc32)c1C
inactive: Potency [13]
active: Potency [8] 21.5 µM | Potency [12] 17.1 µM | Potency [5] 1.36 µM | Potency [6] 13.6 µM | Potency [16] 3.03 µM | Potency [7] 6.05 µM | Potency (MKL-1) 12.1 µM
inconclusive: Potency [14] 53.7 µM [cytotoxic, single point]

COc1cc2c(cc1OC(C)C)[C@H](c1ccc(Cl)cc1)N(c1ccc(N(C)CC3CCC(N4CCN(C)C(=O)C4)CC3)cc1)C(=O)C2 (stereo not given in full)
inconclusive: Potency [3] 33 µM [inhibitor, single point]

Cc1cc(C(=O)Nc2cc(Nc3ccc4c(/C=C/c5ccccn5)n[nH]c4c3)ccc2F)n(C)n1
active: Potency [3] 29.4 µM
